For 29 compounds, growth inhibition call results are on record in the antibiotic and cytotoxicity screens of Wong et al. (2023).

The other results are listed elsewhere or left out.

The test deals with S. aureus RN4220. Description: growth inhibition call (relative growth <= 0.2). Conditions: 50 µM.
Turning to `CC(C)C#Cc1ccc2c(c1)O[C@H](CN(C)S(=O)(=O)c1cn(C)cn1)[C@H](C)CN([C@@H](C)CO)S2(=O)=O`, the growth inhibition call was “inactive”.
For `O=C(C[C@H]1CC[C@@H]2[C@H](COC[C@H](O)CN2C(=O)c2ccccc2)O1)NCCCN1CCOCC1` the value was “inactive”; for `COC(=O)CC1C(C)(C)C(OC(C)=O)C2CC3=C4CC(=O)OC(c5ccoc5)C4(C)CCC3C1(C)C2=O` (centres undefined), “inactive”.
Consider `C[C@H](CO)N1C[C@H](C)[C@H](CN(C)C(=O)Nc2ccc(C(F)(F)F)cc2)Oc2c(NC(=O)Nc3ccc(C(F)(F)F)cc3)cccc2C1=O`, for which the growth inhibition call was “inactive”.
With `C[C@H](CO)N1C[C@H](C)[C@H](CN(C)CC2CCCCC2)Oc2ccc(NC(=O)Cn3cnnn3)cc2C1=O`, the growth inhibition call is “inactive”.
`C[C@@H]1CCCCO[C@H](CN(C)C(=O)CCC(F)(F)F)[C@H](C)CN([C@H](C)CO)C(=O)c2cc(NS(=O)(=O)c3ccc(Cl)cc3)ccc2O1`: the growth inhibition call was “inactive”.
Turning to `O=C(C[C@@H]1CC[C@@H]2[C@H](COC[C@@H](O)CN2Cc2ccccc2F)O1)N[C@H]1CCN(Cc2ccccc2)C1`, the growth inhibition call is “inactive”.
The entry for `C[C@H]1CN([C@@H](C)CO)C(=O)Cc2cc(NC(=O)CCCCCC(=O)Nc3ccccc3N)ccc2O[C@H]1CN(C)S(=O)(=O)c1cn(C)cn1` is “inactive”; for `COc1ccc(NC(=O)Nc2ccc3c(c2)C(=O)N([C@H](C)CO)C[C@H](C)[C@@H](CN(C)S(=O)(=O)c2ccc(F)cc2)OCCCC[C@H](C)O3)cc1` it is “inactive”.
The entry for `C=CC[N+]1(C2CC3C4CCC5CC(O)C(N6CCOCC6)CC5(C)C4CCC3(C)C2OC(C)=O)CCCC1.[Br-]` (centres undefined) is “inactive”.
Consider `C[C@H]1CN([C@@H](C)CO)C(=O)c2cc(NC(=O)Nc3ccc(F)cc3)ccc2O[C@H]1CN(C)CC1CCCCC1`, for which the growth inhibition call is “inactive”.
The entry for `Cc1noc(C)c1S(=O)(=O)Nc1cccc2c1O[C@H](CN(C)Cc1ccccc1)[C@H](C)CN([C@H](C)CO)C2=O` is “inactive”; for `C[C@H](CO)N1C[C@H](C)[C@@H](CN(C)Cc2ccc(C(F)(F)F)cc2)Oc2ccc(NC(=O)Nc3cccc4ccccc34)cc2CC1=O` it is “inactive”; for `Cc1noc(C)c1NC(=O)Nc1ccc2c(c1)C(=O)N([C@H](C)CO)C[C@@H](C)[C@@H](CN(C)C(=O)C1CCCCC1)OCCCC[C@@H](C)O2` it is “inactive”.
Regarding `C[C@H](CO)N1C[C@H](C)[C@@H](CN(C)S(=O)(=O)c2ccccc2)Oc2cc(C#Cc3ccncc3)ccc2S1(=O)=O`, the growth inhibition call was “inactive”.
Consider `CCN(CC)CCNc1ccc(CO)c2sc3ccccc3c(=O)c12`, for which the growth inhibition call is “inactive”.
Consider `CC(C)(C[C@H]1CN(S(=O)(=O)c2cccc(C(F)(F)F)c2)c2cc(-c3cc(F)cc(OC(F)F)c3)ccc2O1)C(=O)O`, for which the growth inhibition call was “inactive”.
Take `COc1ccc(NC(=O)Nc2ccc3c(c2)CC(=O)N([C@@H](C)CO)C[C@H](C)[C@@H](CN(C)Cc2ccc(C(=O)Nc4ccccc4N)cc2)O3)cc1`: the growth inhibition call was “inactive”.
As to `CC(C)[Si](C#C[Si](C(C)C)(C(C)C)C(C)C)(O[C@H](C)c1cn([C@H](CO)Cc2ccccc2)nn1)C(C)C`, the growth inhibition call is “inactive”.
For `COc1ccc(C#Cc2cnc3c(c2)C(=O)N([C@H](C)CO)C[C@H](C)[C@H](CN(C)C(=O)Nc2cccc4ccccc24)O3)cc1OC` the value was “inactive”; for `CCCN(C)C[C@H]1OCCCC[C@H](C)Oc2ccc(NC(=O)Nc3ccc4c(c3)OCO4)cc2C(=O)N([C@@H](C)CO)C[C@@H]1C`, “inactive”; for `COc1ccc(S(=O)(=O)Nc2ccc3c(c2)C(=O)N([C@@H](C)CO)C[C@@H](C)[C@@H](CN(C)S(=O)(=O)c2cn(C)cn2)O3)cc1`, “inactive”.
As for `C[C@@H](CO)N1C(=O)[C@@H]2[C@H]3C(=O)OCC=C[C@H]3O[C@]23C=CCN(C(C)(C)C)C(=O)[C@@H]13`, the growth inhibition call is “inactive”.
Turning to `C[C@H]1CN([C@@H](C)CO)C(=O)c2cccc(NC(=O)c3ccc(-c4nccs4)cc3)c2O[C@H]1CN(C)C(=O)Nc1cccc2ccccc12`, the growth inhibition call is “inactive”.
For `O=C(C[C@H]1CC[C@H]2[C@@H](COC[C@@H](O)CN2C(=O)Nc2cccc(Cl)c2)O1)NCCCN1CCOCC1` the value was “inactive”.
For `COc1ccc(C2CC(=O)c3c(O)cc(OC4OC(COC5OC(C)C(O)C(O)C5O)C(O)C(O)C4O)cc3O2)cc1O` (centres undefined), the growth inhibition call was “inactive”.
On to `C[C@H]1CN([C@@H](C)CO)C(=O)c2cc(C#CCc3ccccc3)cnc2O[C@H]1CN(C)CC1CCOCC1`, for which the growth inhibition call was “inactive”.
As to `C[C@H]1CN([C@@H](C)CO)C(=O)Cc2cc(NC(=O)C3CCCCC3)ccc2O[C@@H]1CN(C)Cc1ccc(C(F)(F)F)cc1`, the growth inhibition call was “inactive”.
For `CCS(=O)(=O)Nc1ccc2c(c1)C(=O)N(C)C[C@H](OC)[C@@H](C)CN(CCC(F)(F)F)[C@H](C)CO2` the value was “inactive”.
